Measurements reported in paper PMC3960075 (ACS chemical biology, 2012).

Biological target: bovine serum albumin (BSA) (Bos taurus, UniProt P02769)
Test: Direct binding FP specificity control with BSA
Settings: BSA 2-fold serial dilutions from 100 μM, 4 at 60 nM

## O=C(O)/C(O)=C/C(=O)C1(Cc2ccc(Cl)cc2)CCN(C(=O)c2ccc(-c3c4ccc(=O)cc-4oc4cc(O)ccc34)c(C(=O)O)c2)CC1 [Compound 4]
  Non-specific binding to BSA: not observed
